For 56 compounds, z-score results are on record in PubChem BioAssay AID488969 (Vanderbilt High Throughput Screening Facility, 2010).

Over roughly 110,000 compounds, “z-score” has its median near -0.1; the highest 2% begin near 2. Some of the results follow.

The experiment concerns the target Metabotropic glutamate receptor 8 (Rattus norvegicus) (UniProt P70579). The experiment can be described thus: mGluR8 Gi/Go-coupled signaling modulation – cell-based, rat, thallium flux, HTS, primary screen (AID 488969). Particulars: HEK293 rat mGluR8, GIRK (G protein-gated inwardly rectifying potassium channel) thallium flux, FluoZin2; at 10 µM; stronger effect = higher value; submaximal glutamate (EC20) added with thallium.
UniProt P70579, sequence (P70579 whole entry, looked up): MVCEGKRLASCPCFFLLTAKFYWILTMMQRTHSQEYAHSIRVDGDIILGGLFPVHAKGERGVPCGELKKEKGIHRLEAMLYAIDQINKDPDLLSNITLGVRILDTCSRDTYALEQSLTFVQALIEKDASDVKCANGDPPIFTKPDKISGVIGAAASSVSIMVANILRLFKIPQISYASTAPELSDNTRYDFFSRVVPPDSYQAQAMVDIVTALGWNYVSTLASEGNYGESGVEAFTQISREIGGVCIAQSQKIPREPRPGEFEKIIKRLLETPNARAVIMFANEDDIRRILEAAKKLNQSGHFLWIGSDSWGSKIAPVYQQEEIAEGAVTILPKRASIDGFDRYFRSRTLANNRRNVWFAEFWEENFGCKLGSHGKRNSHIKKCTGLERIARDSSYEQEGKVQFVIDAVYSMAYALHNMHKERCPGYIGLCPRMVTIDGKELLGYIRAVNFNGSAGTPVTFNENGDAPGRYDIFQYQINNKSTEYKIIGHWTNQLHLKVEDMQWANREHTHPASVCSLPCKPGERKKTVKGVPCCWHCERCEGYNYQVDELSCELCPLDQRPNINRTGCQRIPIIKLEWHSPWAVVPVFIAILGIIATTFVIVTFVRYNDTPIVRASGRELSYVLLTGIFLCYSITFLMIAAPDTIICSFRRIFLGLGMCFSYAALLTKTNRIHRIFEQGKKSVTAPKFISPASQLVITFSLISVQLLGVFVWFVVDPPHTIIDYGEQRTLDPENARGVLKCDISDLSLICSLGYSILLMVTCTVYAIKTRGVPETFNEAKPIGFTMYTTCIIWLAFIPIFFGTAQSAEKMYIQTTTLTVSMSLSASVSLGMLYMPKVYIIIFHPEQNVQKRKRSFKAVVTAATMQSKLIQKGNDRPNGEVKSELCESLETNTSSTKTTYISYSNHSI
Take `COC(=O)c1ccccc1NC(=O)c1ccccc1OC`: the z-score turned out to be 0.307. `O=C(CNc1ccc(C(F)(F)F)cc1[N+](=O)[O-])OCC(=O)c1ccccc1` came in with a z-score of -0.875. Then `O=C(COc1ccc2ccccc2c1)N1CCN(C(=O)c2cccnc2)CC1`, with -0.0679. In turn, `C=C(C)c1cccc(C(C)(C)NC(=O)Nc2ncccn2)c1` showed a z-score of 0.295. Then `Cc1nc(SCC(=O)Nc2ccc(N3CCOCC3)cc2)nc(C)c1C`, with 0.112.

In turn, `CCCN(CC(=O)Nc1cc(Cl)cc(Cl)c1)CC(=O)Nc1ccc(F)c(F)c1F` registered a z-score of -0.209.

In turn, `O=C(O)C1CC(=O)N(CCOc2ccccc2)C1` (stereo unspecified) gave a z-score of -0.106. The compound `Cc1cccc(NC(=O)CN(C)S(=O)(=O)c2cnc[nH]2)c1` had a z-score of 1.6. To `CC(C)COC(=O)CNc1n[nH]c(=S)[nH]c1=O` belongs 1.98; to `CCOC(=O)C1CCN(c2ncnc3c2cnn3-c2ccccc2)CC1`, -0.639. Then `C=CCSc1nnc(-c2ccc(Cl)cc2Cl)o1`, with -0.0349.

Compound `O=C(Cc1ccccc1)Nc1scc(-c2ccccc2)c1C(=O)N1CCOCC1` returned a z-score of -0.0604. Then `CCc1cc2c(=O)c(-c3nc4ccccc4n3C)c(C)oc2c(CN(CC)CC)c1O`, with -0.0764. Then `CCN(CC)C(=O)COc1cc(C)c(Cl)c(C)c1`, with 0.126.

Compound `Cc1ccsc1/C=N\NC(=O)c1ccc2c(c1)OCO2` gave a z-score of 1.8. Then `COc1ccc(C(C)(C)C)cc1NC(=O)c1ccoc1C`, with -0.969. The compound `CC(OC(=O)C1=COCCO1)C(=O)Nc1ccc(Oc2ccccc2)cc1` (stereo unspecified) gave a z-score of 0.0205. Then `CCc1ccc2[nH]c3nc(C)cc(C)c3c(=O)c2c1`, with -0.218.

On to `CCc1ccc(C(=O)c2ccccc2C(=O)O)s1`, for which the z-score is -0.0365. To `Cc1ccc(NC(=O)COC(=O)C2CC3C=CC2C3)cc1S(=O)(=O)N1CCCCC1` (stereo unspecified) belongs 2.02; to `C[C@H](Nc1ncnc2sc3c(c12)CCC3)C(=O)O`, 0.0927; to `CCOC(=O)c1[nH]c2ccc(OC)cc2c1NC(=O)CCN1CCCC(C)C1` (stereo unspecified), 0.0864. Then `O=C1Nc2ccccc2C(O)(C(=O)NCc2ccco2)N1c1ccc(Cl)c(Cl)c1` (stereo unspecified), with -0.554.

`O=C(CSc1oc(-c2ccc(F)cc2)nc1S(=O)(=O)c1ccccc1)NCC1CCCO1` (stereo unspecified): the z-score is 0.331. In turn, `CCn1c(=O)c2cc(C(=O)Nc3cc(C)on3)sc2c2ccccc21` came in with a z-score of -0.19. To `COc1ccc(OC)c(C(=O)c2oc3ccccc3c2NC(C)=O)c1` belongs -0.0828; to `COc1ccc(CNC(=O)C2CCN(c3nc(OC)nc(OC)n3)CC2)cc1`, -0.353; to `CC[N+]1(C)CCC(=C2c3ccccc3CC(=O)c3sccc32)CC1` (stereo unspecified), 0.444.

Compound `O=C(OCn1nnc2ccccc2c1=O)c1cc(-c2ccccc2)nc2ccccc12` returned a z-score of -0.103. To `COc1ccc(Br)cc1C(=O)Nc1cccc(C)c1C` belongs -0.349. As for `CCOc1ccccc1C1CC(=O)NC(SCC(=O)Nc2nccs2)=C1C#N` (stereo unspecified), the z-score is -0.415. To `Cc1ncc([N+](=O)[O-])n1CC(=O)NC1CCCC1` belongs 1.41; to `CCN1C(=O)c2cccc3c(S(=O)(=O)NCc4ccco4)ccc1c23`, -0.124; to `Cc1cccc(C)c1NC(=O)CNC(=O)C(NC(=O)c1ccc(C(C)(C)C)cc1)C(C)C` (stereo unspecified), -0.23. The compound `CC(=O)Nc1cc(C(=O)N2CCCC2)ccc1S(=O)(=O)c1ccc(Cl)cc1` came in with a z-score of -0.31. To `O=C(N/N=C/c1c[nH]c2ccccc12)c1cc(-c2ccccc2)n[nH]1` belongs 0.229; to `COc1cccc(C(c2sc3ncnn3c2O)N2CCc3ccccc3C2)c1` (stereo unspecified), -0.404.

Compound `COc1cccc(N2C(=O)CC(N3CCc4ccccc43)C2=O)c1` (stereo unspecified) came in with a z-score of -0.243. For the compound `CCOC(=O)c1ccc(NC(=O)Nc2ccc3c4c(cccc24)C(=O)N3CC)cc1`, the z-score was found to be 0.0515. To `O=C(Nc1ccc2c(c1)OCO2)C(c1ccccc1)N1CCC2(CC1)OCCO2` (stereo unspecified) belongs -0.254; to `O=C(NCC1CCCO1)c1ccc(CS(=O)(=O)c2ccc(Br)cc2)o1` (stereo unspecified), -0.161. Turning to `CCOC(=O)C1CCN(C(=O)CN(C)S(=O)(=O)c2cc(C)ccc2OC)CC1`, the z-score worked out at 0.103.

`CCOCCCNC(=O)C1CCC(CNS(=O)(=O)c2ccc(F)cc2)CC1` (stereo unspecified) displayed a z-score of 0.0607. To `Cc1ccnc(NC(=O)c2ccoc2C)c1` belongs -0.455. The compound `COc1cccc(NC(=O)C2C3C=CC4(O3)C2C(=O)N(C(C)C)C4C(=O)NC2CCCCC2C)c1` (stereo unspecified) had a z-score of 0.0349. Then `COCCCn1c2nc3ccccc3nc2c2c(=O)n(Cc3cccs3)cnc21`, with -0.0914; and `CCOc1ccccc1OCCn1nnc2ccccc21`, with 0.385. The compound `COc1ccc(-c2nc3n(n2)C(c2ccccc2Cl)C(C(N)=O)=C(C)N3)cc1` (stereo unspecified) had a z-score of -0.212. Turning to `CC(C)(C)c1ccc(S(=O)(=O)Nc2cccnc2)cc1`, the z-score was -0.237. To `Cc1nn(Cc2ccc(C(=O)NC(C)(C)C)o2)c(C)c1Br` belongs 0.0484. On to `Cc1ccc(C(=O)NCCc2cccc(Cl)c2)cc1[N+](=O)[O-]`, for which the z-score is 0.105. In turn, `COc1cc(C(=O)NC(=S)Nc2ccc(N3CCCC3)cc2)cc(OC)c1OC` came in with a z-score of -0.391. Then `COc1ccc(C(=O)Nc2ccccc2N2CCN(C(=O)C(C)C)CC2)cc1Cl`, with 0.512.

The compound `COc1cc(C2Sc3ccccc3NC3=C2C(=O)OC3)cc(OC)c1OC` (stereo unspecified) had a z-score of -0.286. In the case of `CCOCCCNCc1c(Cl)cccc1Cl`, the z-score was -0.357. The compound `CCC(C)NC(=O)C(CCSC)NC(=O)c1ccccc1` (stereo unspecified) came in with a z-score of 0.251.
